The labels stand for the following.
B1: GPR68, Q15743 (parent)
chain: MGNITADNSSMSCTIDHTIHQTLAPVVYVTVLVVGFPANCLSLYFGYLQIKARNELGVYLCNLTVADLFYICSLPFWLQYVLQHDNWSHGDLSCQVCGILLYENIYISVGFLCCISVDRYLAVAHPFRFHQFRTLKAAVGVSVVIWAKELLTSIYFLMHEEVIEDENQHRVCFEHYPIQAWQRAINYYRFLVGFLFPICLLLASYQGILRAVRRSHGTQKSRKDQIQRLVLSTVVIFLACFLPYHVLLLVRSVWEASCDFAKGVFNAYHFSLLLTSFNCVADPVLYCFVSETTHRDLARLRGACLAFLTCSRTGRAREAYPLGAPEASGKSGAQGEEPELLTKLHPAFQTPNSPGSGGFPTGRLA

In data set [1] the parent is B1. The experiment in a line: cAMP reporter score (Enrich2 score, wild type = 0); higher = more signal; HEK293T, FACS bins.
In data set [2] the parent is B1. Briefly: surface expression score (Enrich2 score, wild type = 0); higher = more signal; HEK293T, FACS bins.

The least precise scores are not listed. Not listed are two conditions whose scores span a narrow range. In variant names, del marks residues removed and ins residues inserted between the two positions. For some assays here: The data file names ogerin without a concentration.

With MGNITADNSSMSCTIDHTIHQTLAPVVYVTVLVVGFPANCLSLYFGYLQIKARNELGVYLCNLTVADLFYICSLPFWLQYVLQHDNWSHGDLSCQVCGILLYENIYISVGFLCCISVDRYLAVAHPFRFHQFRTLKAAVGVSVVIWAKELLTSIYFLMHEEVIEDENQHRVCFEHYPIQAWQRAINYYRFLVGFLFPICLLLASYQGILRAVRRSHGTQKSRKDQIQRLVLSTVVIFLACFLPYHVLLLVRSVWEASCDFAKGVFNAYHFSLLLTSFNCVADPVLYCFVSETTHPDLARLRGACLAFLTCSRTGRAREAYPLGAPEASGKSGAQGEEPELLTKLHPAFQTPNSPGSGGFPTGRLA [R295P], the cAMP reporter score is -0.456 in data set [1] (pH 5.5); -1 in data set [1] (pH 6); -0.291 in data set [1] (pH 6, modulator: ogerin); -1.49 in data set [1] (pH 6.5, modulator: ogerin). Also, the surface expression score in data set [2] came out at 0.079.

Regarding MGNITADNSSMSCTIDHTIHQTLAPVVYVTVLVVGFPANCLSLYFGYLQIKARNELGVYLCNLTVADLFYICSLPFWLQYVLQHDNWSHGDLSCQVCGILLYENIYISVGFLCCISVDRYLAVAHPFRFHQFRTLKAAVGVSVVIWAKELLTSIYFLMHEEVIEDENQHRVCFEHYPIQAWQRAINYYRFLVGFLFPICLLLASYQGILRAVRRSHGTQKSRKDQIQRLVLSTVVIFLACFLPYHVLLLVRSVWEASCDFAKGVFNAYHFSLLLTSFNCVADPVLYCFVSETTHNDLARLRGACLAFLTCSRTGRAREAYPLGAPEASGKSGAQGEEPELLTKLHPAFQTPNSPGSGGFPTGRLA [R295N], the cAMP reporter score in data set [1] (pH 5.5) was 0.958; in data set [1] (pH 6), -0.003; in data set [1] (pH 6, modulator: ogerin), 1.03; in data set [1] (pH 6.5, modulator: ogerin) it was 0.395. For the same variant, in data set [2], the surface expression score came out at 0.955.

For MGNITADNSSMSCTIDHTIHQTLAPVVYVTVLVVGFPANCLSLYFGYLQIKARNELGVYLCNLTVADLFYICSLPFWLQYVLQHDNWSHGDLSCQVCGILLYENIYISVGFLCCISVDRYLAVAHPFRFHQFRTLKAAVGVSVVIWAKELLTSIYFLMHEEVIEDENQHRVCFEHYPIQAWQRAINYYRFLVGFLFPICLLLASYQGILRAVRRSHGTQKSRKDQIQRLVLSTVVIFLACFLPYHVLLLVRSVWEASCDFAKGVFNAYHFSLLLTSFNCVADPVLYCFVSETTHQDLARLRGACLAFLTCSRTGRAREAYPLGAPEASGKSGAQGEEPELLTKLHPAFQTPNSPGSGGFPTGRLA [R295Q], the cAMP reporter score in data set [1] (pH 5.5) was 0.335; in data set [1] (pH 6), -1.01; in data set [1] (pH 6, modulator: ogerin), 0.709; in data set [1] (pH 6.5, modulator: ogerin) it was -0.646. For the same variant, in data set [2], the surface expression score was 2.12.

As for MGNITADNSSMSCTIDHTIHQTLAPVVYVTVLVVGFPANCLSLYFGYLQIKARNELGVYLCNLTVADLFYICSLPFWLQYVLQHDNWSHGDLSCQVCGILLYENIYISVGFLCCISVDRYLAVAHPFRFHQFRTLKAAVGVSVVIWAKELLTSIYFLMHEEVIEDENQHRVCFEHYPIQAWQRAINYYRFLVGFLFPICLLLASYQGILRAVRRSHGTQKSRKDQIQRLVLSTVVIFLACFLPYHVLLLVRSVWEASCDFAKGVFNAYHFSLLLTSFNCVADPVLYCFVSETTHMDLARLRGACLAFLTCSRTGRAREAYPLGAPEASGKSGAQGEEPELLTKLHPAFQTPNSPGSGGFPTGRLA [R295M], the cAMP reporter score in data set [1] (pH 5.5) was -0.214; in data set [1] (pH 6) it was -0.273; in data set [1] (pH 6, modulator: ogerin), -0.619; in data set [1] (pH 6.5, modulator: ogerin), -0.131. In data set [2], the surface expression score stood at 0.459.

The record behind these values is the GPR68 mutational scans of Howard et al. (2025).
